Consider 22 molecules from paper PMC12136788.

The other results are listed elsewhere or left out.

T1: UNK ZnF1-3 (human, UniProt Q9C0B0 31-174)
T1 sequence: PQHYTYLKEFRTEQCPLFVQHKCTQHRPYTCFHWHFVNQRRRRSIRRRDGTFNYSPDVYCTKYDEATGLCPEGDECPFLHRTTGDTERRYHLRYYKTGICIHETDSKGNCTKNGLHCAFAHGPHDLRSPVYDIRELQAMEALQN

B1: 213244347_213251121_315_CDS_ENSG00000136643_ENST00000366960|human|control|control (ssRNA)
RNA: GGGAGUUCUACAGUCCGACGAUCUGAAUGUCGGAAUAAGUUUUUGUGAAUUUGCCAUAGUUCUUUGUGUAGUUUCUUAAAAUCACUGUAUCUCUUCCAUACAAUUAUCUCCUGGACAUCCUCUGGAUUUCUUCGUGAAACAACCAACAGAGGAUUGAGCAUCA
B2: chr17:88379672:88379673:+_ENSMUSG00000005370_ENSMUST00000005503|mus_hu|motif|central (ssRNA)
RNA: GGGAGUUCUACAGUCCGACGAUCUCCCUUCUGGGCUUCCUUUGAUUUUGAACCUGUAUAUGGCUUUAAAAGCCUUUUGCGGACCCAGCCCCUUGUUGGGCUGUCAUCAAAAAACUGUACAUGAACACGGACUGAUUUCCCUUUCAACAGAGGAUUGAGCAUCA
B3: chr8:59488481:59488482:+_ENSG00000137575_ENST00000447182|hu_mus|FALSE|FALSE (ssRNA)
RNA: GGGAGUUCUACAGUCCGACGAUCUCCAGCAUCGUUACCUGUCACAGGUGCUACCAUAUAGUUCACACUGGAUGGUCUUGCUACCAACCCUUGUGCUGGUGCUCCAGAGACCAUGGGCAUGCUCUCACAUAUUUCAGCUUCAUUCAACAGAGGAUUGAGCAUCA
B4: chr12:39752152:39752153:-_ENSG00000139116_ENST00000544797|hu_mus|FALSE|FALSE (ssRNA)
RNA: GGGAGUUCUACAGUCCGACGAUCGUACUUCAGAGUGUUUAACGUCUCCAUGAAAUCCCUGUCUGAAGGGCUGACGCAUGCUAUCAUGAUGGUUUGGCUGUUACCCCCAAGGGAAUCCUGCAAGAGUCUUGUCAGCUUAGAGUCCAACAGAGGAUUGAGCAUCA
B5: chr3:58352644:58352645:+_ENSMUSG00000027810_ENSMUST00000029387|mus_mus|FALSE|FALSE (ssRNA)
RNA: GGGAGUUCUACAGUCCGACGAUCCUUAUGCAAAAGAGAGCCAGUAUAAUGCCAGAUCUUAUACCCAUUAUUAACACGUAACCUAGGAGCACAUGUGGCUGUUAAGAUAUGCUCACCAUCUGGGCACCAGGCAAAAUAUGUAGACAACAGAGGAUUGAGCAUCA
B6: chr1:155751701:155751702:+_ENSMUSG00000026473_ENSMUST00000086199|mus_mus|FALSE|FALSE (ssRNA)
RNA: GGGAGUUCUACAGUCCGACGAUCAAACAUGGCAACAGGAUGGAGGUACAUGUCGCUGUUGGAGCCUUCAGACUGAAAGGUACUAGAGCCAUCAAAGUUCCACUCAGGUAACUCUUCCACACACUUGGGCUCACAGUCCAGGGUCAACAGAGGAUUGAGCAUCA
B7: 102558931_102559051_105_3pUTR_ENSMUSG00000020925_ENSMUST00000092569|mouse|control|control (ssRNA)
RNA: GGGAGUUCUACAGUCCGACGAUCGCGCCUCCAACCGUCCGUCAAGCCAGGAUCCAAAAGCCCCGCCAUCGCCUUCACCGAGGACUGCCGCGGCCACUUCGCUGGGCGCCGCCAUGCUGGGGACAGGGUCCUGCCGGACCCGAGCAACAGAGGAUUGAGCAUCA
B8: chr7:44244176:44244177:+_ENSG00000106636_ENST00000223369|hu_mus|hu_hu_hu_mus_False|48_108 (ssRNA)
RNA: GGGAGUUCUACAGUCCGACGAUCACUAUCAUUCCGGACGUAGACAUGGCAAAGAUACUCUUGUUCUUUGACAGAAGCUCUGCUGCCUUUCGAUGAGCGUUCCACAAUCAGUUGACUUGUAAAGGUCAUGAAUUCCUGCACACUCAACAGAGGAUUGAGCAUCA
B9: chr7:56126341:56126342:+_ENSG00000146731_ENST00000540286|hu_mus|hu_hu_hu_mus_True|78_98 (ssRNA)
RNA: GGGAGUUCUACAGUCCGACGAUCCAUGUUUCUCCUCUUAGCUCUGCGCAGAGCUACUAUGCCUUCUUUCGCAAGGGCAUCUAAGGAAAAGGGGUCAAUCCCCUUUUGAUUAAUAACGACAAAUCCUUUAUCUGAGUCACCACACAACAGAGGAUUGAGCAUCA
B10: chr16:75203323:75203324:+_ENSG00000184517_ENST00000393430|hu_hu|motif|central (ssRNA)
RNA: GGGAGUUCUACAGUCCGACGAUCUGCUUUUCCAAAUUCAUUACACUCAUCAGUCUGCUUUCCUGCAUAGCUUCUAUUACGGUUAAGCAAGUCUGAAUUAUAUUUCAAAGUUUUUUCAUAUAAGUCAUAUUUAUAAGGUACUUGCAACAGAGGAUUGAGCAUCA
B11: chr7:7679991:7679992:-_ENSG00000106399_ENST00000396682|hu_hu|hu_hu_hu_mus_False|28_68 (ssRNA)
RNA: GGGAGUUCUACAGUCCGACGAUCUGGGAUGAAUCUUUUCCAGCUUCCCCACGAAGCACACGGGCCGGUCGAUGAAUUGUGGUAACAUGCUGGCGUUGACGCGCGCUCUGGGCAAGUGCAUUAUGUCCUCCAUGAUUCUGCCGCCAACAGAGGAUUGAGCAUCA
B12: 72196774_72196894_5025_CDS_ENSG00000197555_ENST00000381232|human|control|control (ssRNA)
RNA: GGGAGUUCUACAGUCCGACGAUCGGAGGUGAAAAAGUGCUCCCUCUGGCUAUUGUAAAUGCUCUCGUCCGACAGUGUUCUGUGCAAGGCCCGCCGUGAGGUGGGGGUGCUGGGGAAAGGAGACUGAGGAGAGGAGAGUGCGUGCAACAGAGGAUUGAGCAUCA
B13: 64395045_64395165_1508_CDS_ENSG00000118482_ENST00000393387|human|control|control (ssRNA)
RNA: GGGAGUUCUACAGUCCGACGAUCAUACUUUGCUGCAACAAUUUUCUUCGGAGCAUCUGUGGUCAUGUUUUGCUUAGAAUGAAUUACAGGUUUUGUAUGUUUGGAUUUUACACUUUUUGACUCUAAGUAAGAAACGCUACUUGACAACAGAGGAUUGAGCAUCA
B14: chr12:105536279:105536280:+_ENSG00000136051_ENST00000332180|hu_mus|hu_hu_hu_mus_True|38_38 (ssRNA)
RNA: GGGAGUUCUACAGUCCGACGAUCAGCACUGAACAUGUAAUGUAAUCUGGCUGCAUCGACAGCAUUUUCAUAUACAUCAUCUAAAUAAAUCGGGAAGACAGCUCGAUGCCAGUAUAAAAAACAGCAGUCACACUGUGCUUGGACCAACAGAGGAUUGAGCAUCA
B15: chr5:66692119:66692120:-_ENSMUSG00000029207_ENSMUST00000159786|mus_hu|FALSE|FALSE (ssRNA)
RNA: GGGAGUUCUACAGUCCGACGAUCAAUACCACUGCGUAAGGAAUUUGGACAUCUUUCUCCCACUCGUGUAGGGAAUUCUAAGAUUCCCUGACAAUAGAUCUUUCCAUACCUGCUCUUCUUAGUAUAUGCCCAGAAUCAUUCUGGCAACAGAGGAUUGAGCAUCA
B16: chr1:220276048:220276049:+_ENSG00000067704_ENST00000302637|hu_hu|motif|central (ssRNA)
RNA: GGGAGUUCUACAGUCCGACGAUCGCAAACAGCUUCAUUGGCUGGAAUCGUCCAAGGUUGUGUGGUCCAGACCAAAAUACGGACAGGAGAUGAACCAUCUAUAAGAGAUGCCAAUUUUGGAGAAGGCUUUAAGAGAGGAAAUUUCAACAGAGGAUUGAGCAUCA
B17: 18900816_18902213_1052_CDS_ENSG00000157106_ENST00000446231|human|control|control (ssRNA)
RNA: GGGAGUUCUACAGUCCGACGAUCGAAGAUCUUCUCAGCCUCAUAGCUCAGAGAAGCACAAAGAAGGCCAAGACAGCAAGCUCCCUCCUGUCUCAACUCCUGAAGCAAUUUGCUACUUUCAUUAAGCACGUCAUGUACAGCAGCCAACAGAGGAUUGAGCAUCA
B18: chr2:202488911:202488912:-_ENSG00000155755_ENST00000286196|hu_mus|hu_hu_hu_mus_False|18_88 (ssRNA)
RNA: GGGAGUUCUACAGUCCGACGAUCAUUGAAACAUUUUUCAUAAUCUCAGAGAUGUUUUCAGCAUUAUGUAACAAAAGCUCAAUUGUAAAUACAUGUAUCUUAUAAAAAUACACUUAAAUUUAAAAACGGGGAGCGCAGGCGCCACAACAGAGGAUUGAGCAUCA
B19: chrX:100668114:100668115:+_ENSG00000126945_ENST00000316594|hu_mus|FALSE|FALSE (ssRNA)
RNA: GGGAGUUCUACAGUCCGACGAUCUCCCAUCAUCUGGCUACCGUAAGCACCACCACUUGCCCCUGCUGUAGAAUUCAAAAAGAGCUCUACAUAGCUAUGAUCAUAAGCUCCUCCACUUGUCCCUGCGGUAGAAUUCAAGAAGAGCAACAGAGGAUUGAGCAUCA
B20: chr2:100010981:100010982:+_ENSG00000158417_ENST00000289371|hu_mus|FALSE|FALSE (ssRNA)
RNA: GGGAGUUCUACAGUCCGACGAUCUUCCAACAUCACUGAAGCCUUCAUAACGUCCUUUUUAUGGACUGGGCCAAUGUUAAUUCCUGCAUAUGGCACCUCUGAUGUUUUCAGAAAUUCAAGAAGAGCUUCCAAAGAGCCCAGUGUCAACAGAGGAUUGAGCAUCA
B21: 112341754_112342337_807_CDS_ENSG00000108055_ENST00000361804|human|control|control (ssRNA)
RNA: GGGAGUUCUACAGUCCGACGAUCCUCUCGCUUAGCAGAAAGCUCAUCAAGUUUGGCACGAGUCUCGUUAAGUUCCUGAUUGUAAAUGGUAUAUUCCAGGGCUCGUCUCAUUUUAUCCCACUUCUGAUACUGAGCUAGUUCUUCCAACAGAGGAUUGAGCAUCA
B22: chrX:70775091:70775092:+_ENSG00000147162_ENST00000373719|hu_hu|FALSE|FALSE (ssRNA)
RNA: GGGAGUUCUACAGUCCGACGAUCAUCAGGGAAAUGUGGUUGUAGUUCGAUAGCCCGCCUGUAGGUGUCUAUUGCCAGAUCUAUCAGGCCUUGCUCAUAGUAUACACAAGCCAGGUUGCCGUGCACCACUGCGUGAUUUGGACUCAACAGAGGAUUGAGCAUCA

In the experiment the target is T1, UNK ZnF1-3. As to the kind of experiment: nsRBNS (natural sequence RNA bind-n-seq); RBNS binding buffer (assumed for nsRBNS): 25 mM Tris pH 7.5, 150 mM KCl, 3 mM MgCl2, 0.01% Triton X-100, 500 ug/ml BSA, 20 U/ml SUPERase-In, 4 C; UNK is unkempt and MSI1 is Musashi-1; names of the RNAs are library labels; protein concentration not given here; high values mean tight binding.
Turning to B1, the binding signal is 0.636 enrichment R.

The molecule B2 registered a binding signal of 0.59 enrichment R. The molecule B3 showed a binding signal of 0.652 enrichment R. Under B4 stands 0.735 enrichment R; under B5, 1.2 enrichment R.

For the molecule B6, the binding signal stood at 1.15 enrichment R. The value for B7 was 0.822 enrichment R; that for B8 was 0.65 enrichment R. Under B9 stands 0.642 enrichment R; under B10, 0.848 enrichment R; under B11, 0.568 enrichment R. The value for B12 was 1.33 enrichment R; that for B13 was 0.892 enrichment R; that for B14 was 2.37 enrichment R.

The molecule B15 returned a binding signal of 0.742 enrichment R. Under B16 stands 1.75 enrichment R. B17 returned a binding signal of 1.22 enrichment R. The value for B18 was 1.97 enrichment R. Under B19 stands 1.65 enrichment R; under B20, 0.872 enrichment R. The molecule B21 had a binding signal of 0.614 enrichment R. Under B22 stands 0.708 enrichment R.
